Assay results taken from the supplement of paper PMC4604168 (melanoma cell lines).
Some of the results follow. Repeats are few or missing, and single values can be far off.

What was measured:
Assay in all cases: cell count relative to DMSO control; melanoma cells; higher = more viable cells
Conditions in all cases: library dose: low library concentration; 72 h
WM115 = test system: WM115
WM1716 = test system: WM1716
WM1745 = test system: WM1745
WM3526 = test system: WM3526
WM3619 = test system: WM3619
WM451Lu = test system: WM451Lu
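Note: cell number obtained by counting DAPI-stained nuclei in high-throughput microscope images with image analysis software, screen run in 1,536-well plates.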

Compound	cell count (WM115)	cell count (WM1716)	cell count (WM1745)	cell count (WM3526)	cell count (WM3619)	cell count (WM451Lu)
O=C(Nc1cccc(Cl)c1)Nc1ncc(CCNc2ncnc3ccsc23)s1 + COc1cc2c(Oc3ccc4[nH]c(C)cc4c3F)ncnc2cc1OCCCN1CCCC1 [cediranib] (first compound 0.0008 µM, partner dose 0.4 µM)	76.8%	98%	104%	89.3%	113%	68.3%
O=c1[nH]nc(Sc2ncc([N+](=O)[O-])s2)n1-c1ccc2c(c1)OCCO2 + C=C(c1ccc(C(=O)O)cc1)c1cc2c(cc1C)C(C)(C)CCC2(C)C [Bexarotene] (first compound 0.2 µM, partner dose 2 µM)	88.5%	89%	105%	77.2%	159%	92.2%
O=C(O)c1ccc(-c2c[nH]c3ncc(-c4ccccc4)cc23)cc1C1CCCC1 + COc1ccc2c(c1)CCC1C2CCC2(C)C(NCCCCCCN3C(=O)C=CC3=O)CCC12 [U73122] (first compound 0.16 µM, partner dose 0.4 µM)	100%	92.9%	88.2%	98.6%	100%	93.2%
O=c1[nH]nc(Sc2ncc([N+](=O)[O-])s2)n1-c1ccc2c(c1)OCCO2 + O=C(CCCCCCC(=O)Nc1ccccc1)NO [vorinostat] (first compound 0.2 µM, partner dose 0.08 µM)	106%	102%	108%	104%	106%	99.6%
O=C(O)c1ccc(-c2c[nH]c3ncc(-c4ccccc4)cc23)cc1C1CCCC1 + CCCCCCCCCCCC1=C(O)C(=O)C=C(O)C1=O [Embelin] (first compound 0.16 µM, partner dose 1.2 µM)	94.2%	107%	105%	98.8%	104%	103%
CC1(C)NC(=O)N(c2ccc([N+](=O)[O-])c(C(F)(F)F)c2)C1=O [nilutamide] + Cc1cc(N2CCOCC2)cc2[nH]c(-c3c(NC[C@@H](O)c4cccc(Cl)c4)cc[nH]c3=O)nc12 [BMS536924] (first compound 1 µM, partner dose 0.2 µM)	104%	87.6%	70.3%	90.3%	107%	96.2%
C[C@@H]1CCN(C(=O)CC#N)C[C@@H]1N(C)c1ncnc2[nH]ccc12 + O=C(Nc1cccc(Cl)c1)Nc1ncc(CCNc2ncnc3ccsc23)s1 [SNS314] (first compound 1 µM, partner dose 0.0008 µM)	85.5%	90.6%	83.8%	93.8%	106%	91.4%
C[C@@H]1CCN(C(=O)CC#N)C[C@@H]1N(C)c1ncnc2[nH]ccc12 + COC(=O)c1sccc1S(=O)(=O)Nc1ccc(Nc2ccccc2)cc1OC [GSK0660] (first compound 1 µM, partner dose 1 µM)	97.7%	97%	92.7%	93.1%	109%	103%
O=C(Nc1cccc(Cl)c1)Nc1ncc(CCNc2ncnc3ccsc23)s1 + O=S(=O)(c1ccccc1)N(CC(F)(F)F)c1ccc(C(O)(C(F)(F)F)C(F)(F)F)cc1 [T0901317] (first compound 0.0008 µM, partner dose 1.4 µM)	86.5%	73.6%	87.2%	88.5%	96.9%	85.6%
O=C(Nc1cccc(Cl)c1)Nc1ncc(CCNc2ncnc3ccsc23)s1 + COc1ccc2c(c1)CCC1C2CCC2(C)C(NCCCCCCN3C(=O)C=CC3=O)CCC12 [U73122] (first compound 0.0008 µM, partner dose 0.4 µM)	81.2%	91%	87.6%	108%	96.5%	74.2%
COc1cc(Nc2ncc(F)c(Nc3ccc4c(n3)NC(=O)C(C)(C)O4)n2)cc(OC)c1OC [Tamatinib] + COc1cc(N2CCC(N3CCN(C)CC3)CC2)ccc1Nc1ncc(Cl)c(Nc2ccccc2S(=O)(=O)C(C)C)n1 [NVP-TAE684] (first compound 0.4 µM, partner dose 0.08 µM)	85%	86.1%	57%	72%	71.6%	108%
O=c1[nH]nc(Sc2ncc([N+](=O)[O-])s2)n1-c1ccc2c(c1)OCCO2 + Cn1c(Nc2ccc(C(F)(F)F)cc2)nc2cc(Oc3ccnc(-c4ncc(C(F)(F)F)[nH]4)c3)ccc21 [CHIR265] (first compound 0.2 µM, partner dose 0.08 µM)	67.3%	91.5%	73%	63.5%	91.7%	92.3%
